Reference: the supplement of paper PMC8728848
This is one part of the list.

Experiments:
Assay in all cases: glycan array binding signal (z-score within array); higher = stronger binding
Conditions in all cases: glycan notation: IUPAC condensed, linker removed
[1] = molecular target: Neu5Ac(a2-3)Gal(b1-4)GlcNAc(b1-3)[Neu5Ac(a2-3)Gal(b1-4)GlcNAc(b1-6)]GalNAc
How it was run: (§1)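 From the Consortium for Functional Glycomics database, 3228 arrays were curated, keeping only those whose protein sequence was available. Binding is given as a within-array Z-score averaged across arrays sharing a protein sequence and across linkers. Negative Z-scores can be read as non-binding.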

[2] = molecular target: Neu5Ac(a2-3)Gal(b1-4)GlcNAc(b1-6)GalNAc
How it was run: as §1

[3] = molecular target: Neu5Ac(a2-3)Gal(b1-4)GlcNAc(b1-6)[Gal(b1-3)]GalNAc
How it was run: as §1

[4] = molecular target: Neu5Ac(a2-3)Gal(b1-4)GlcNAc(b1-6)[Neu5Ac(a2-3)Gal(b1-3)]GalNAc
How it was run: as §1

[5] = molecular target: Neu5Ac(a2-3)Gal(b1-4)GlcNAc6S
How it was run: as §1

[6] = molecular target: Neu5Ac(a2-3)Gal(b1-4)[Fuc(a1-3)]GlcNAc
How it was run: as §1

[7] = molecular target: Neu5Ac(a2-3)Gal(b1-4)[Fuc(a1-3)]GlcNAc(b1-2)Man
How it was run: as §1

[8] = molecular target: Neu5Ac(a2-3)Gal(b1-4)[Fuc(a1-3)]GlcNAc(b1-3)Gal
How it was run: as §1

[9] = molecular target: Neu5Ac(a2-3)Gal(b1-4)[Fuc(a1-3)]GlcNAc(b1-3)Gal(b1-4)GlcNAc
How it was run: as §1

[10] = molecular target: Neu5Ac(a2-3)Gal(b1-4)[Fuc(a1-3)]GlcNAc(b1-3)Gal(b1-4)[Fuc(a1-3)]GlcNAc(b1-3)Gal(b1-4)[Fuc(a1-3)]GlcNAc
How it was run: as §1

[11] = molecular target: Neu5Ac(a2-3)Gal(b1-4)[Fuc(a1-3)]GlcNAc(b1-3)GalNAc
How it was run: as §1

[12] = molecular target: Neu5Ac(a2-3)Gal(b1-4)[Fuc(a1-3)]GlcNAc(b1-6)[Gal(b1-3)]GalNAc
How it was run: as §1

[13] = molecular target: Neu5Ac(a2-3)Gal(b1-4)[Fuc(a1-3)]GlcNAc(b1-6)[Neu5Ac(a2-3)Gal(b1-3)]GalNAc
How it was run: as §1

[14] = molecular target: Neu5Ac(a2-3)Gal(b1-4)[Fuc(a1-3)]GlcNAc6S
How it was run: as §1

[15] = molecular target: Neu5Ac(a2-3)Gal6S(b1-4)GlcNAc
How it was run: as §1

[16] = molecular target: Neu5Ac(a2-3)Gal6S(b1-4)[Fuc(a1-3)]GlcNAc
How it was run: as §1

[17] = molecular target: Neu5Ac(a2-3)GalNAc
How it was run: as §1

[18] = molecular target: Neu5Ac(a2-3)GalNAc(b1-4)GlcNAc
How it was run: as §1

[19] = molecular target: Neu5Ac(a2-3)[GalNAc(b1-4)]Gal(b1-4)Glc
How it was run: as §1

[20] = molecular target: Neu5Ac(a2-3)[GalNAc(b1-4)]Gal(b1-4)GlcNAc
How it was run: as §1

[21] = molecular target: Neu5Ac(a2-3)[GalNAc(b1-4)]Gal(b1-4)GlcNAc(b1-3)GalNAc
How it was run: as §1

[22] = molecular target: Neu5Ac(a2-3)[Neu5Ac(a2-6)]GalNAc
How it was run: as §1

[23] = molecular target: Neu5Ac(a2-6)Gal
How it was run: as §1

[24] = molecular target: Neu5Ac(a2-6)Gal(b1-3)GlcNAc(b1-3)[Gal(b1-4)GlcNAc(b1-6)]Gal(b1-4)Glc
How it was run: as §1

[25] = molecular target: Neu5Ac(a2-6)Gal(b1-4)Glc
How it was run: as §1

[26] = molecular target: Neu5Ac(a2-6)Gal(b1-4)GlcNAc
How it was run: as §1

[27] = molecular target: Neu5Ac(a2-6)Gal(b1-4)GlcNAc(b1-2)Man
How it was run: as §1

[28] = molecular target: Neu5Ac(a2-6)Gal(b1-4)GlcNAc(b1-2)Man(a1-3)Man(b1-4)GlcNAc(b1-4)GlcNAc
How it was run: as §1

[29] = molecular target: Neu5Ac(a2-6)Gal(b1-4)GlcNAc(b1-2)Man(a1-3)[Gal(b1-4)GlcNAc(b1-2)Man(a1-6)]Man(b1-4)GlcNAc(b1-4)GlcNAc
How it was run: as §1

[30] = molecular target: Neu5Ac(a2-6)Gal(b1-4)GlcNAc(b1-2)Man(a1-3)[GlcNAc(b1-2)Man(a1-6)]Man(b1-4)GlcNAc(b1-4)GlcNAc
How it was run: as §1

[31] = molecular target: Neu5Ac(a2-6)Gal(b1-4)GlcNAc(b1-2)Man(a1-3)[GlcNAc(b1-4)][Neu5Ac(a2-6)Gal(b1-4)GlcNAc(b1-2)Man(a1-6)]Man(b1-4)GlcNAc(b1-4)GlcNAc
How it was run: as §1

[32] = molecular target: Neu5Ac(a2-6)Gal(b1-4)GlcNAc(b1-2)Man(a1-3)[Man(a1-6)]Man(b1-4)GlcNAc(b1-4)GlcNAc
How it was run: as §1

[33] = molecular target: Neu5Ac(a2-6)Gal(b1-4)GlcNAc(b1-2)Man(a1-3)[Neu5Ac(a2-3)Gal(b1-4)GlcNAc(b1-2)Man(a1-6)]Man(b1-4)GlcNAc(b1-4)GlcNAc
How it was run: as §1

[34] = molecular target: Neu5Ac(a2-6)Gal(b1-4)GlcNAc(b1-2)Man(a1-3)[Neu5Ac(a2-6)Gal(b1-4)GlcNAc(b1-2)Man(a1-6)]Man(b1-4)GlcNAc(b1-4)GlcNAc
How it was run: as §1

[35] = molecular target: Neu5Ac(a2-6)Gal(b1-4)GlcNAc(b1-2)Man(a1-3)[Neu5Ac(a2-6)Gal(b1-4)GlcNAc(b1-2)Man(a1-6)]Man(b1-4)GlcNAc(b1-4)[Fuc(a1-6)]GlcNAc
How it was run: as §1

[36] = molecular target: Neu5Ac(a2-6)Gal(b1-4)GlcNAc(b1-2)Man(a1-6)Man(b1-4)GlcNAc(b1-4)GlcNAc
How it was run: as §1

[37] = molecular target: Neu5Ac(a2-6)Gal(b1-4)GlcNAc(b1-2)Man(a1-6)[Gal(b1-4)GlcNAc(b1-2)Man(a1-3)]Man(b1-4)GlcNAc(b1-4)GlcNAc
How it was run: as §1

[38] = molecular target: Neu5Ac(a2-6)Gal(b1-4)GlcNAc(b1-2)Man(a1-6)[GlcNAc(b1-2)Man(a1-3)]Man(b1-4)GlcNAc(b1-4)GlcNAc
How it was run: as §1

[39] = molecular target: Neu5Ac(a2-6)Gal(b1-4)GlcNAc(b1-2)Man(a1-6)[Man(a1-3)]Man(b1-4)GlcNAc(b1-4)GlcNAc
How it was run: as §1

[40] = molecular target: Neu5Ac(a2-6)Gal(b1-4)GlcNAc(b1-2)[Neu5Ac(a2-6)Gal(b1-4)GlcNAc(b1-4)]Man(a1-3)[GlcNAc(b1-4)][Neu5Ac(a2-6)Gal(b1-4)GlcNAc(b1-2)[Neu5Ac(a2-6)Gal(b1-4)GlcNAc(b1-6)]Man(a1-6)]Man(b1-4)GlcNAc(b1-4)GlcNAc
How it was run: as §1

[41] = molecular target: Neu5Ac(a2-6)Gal(b1-4)GlcNAc(b1-2)[Neu5Ac(a2-6)Gal(b1-4)GlcNAc(b1-4)]Man(a1-3)[GlcNAc(b1-4)][Neu5Ac(a2-6)Gal(b1-4)GlcNAc(b1-4)Man(a1-6)]Man(b1-4)GlcNAc(b1-4)GlcNAc
How it was run: as §1

[42] = molecular target: Neu5Ac(a2-6)Gal(b1-4)GlcNAc(b1-2)[Neu5Ac(a2-6)Gal(b1-4)GlcNAc(b1-6)]Man(a1-6)[Neu5Ac(a2-6)Gal(b1-4)GlcNAc(b1-2)Man(a1-3)][GlcNAc(b1-4)]Man(b1-4)GlcNAc(b1-4)GlcNAc
How it was run: as §1

[43] = molecular target: Neu5Ac(a2-6)Gal(b1-4)GlcNAc(b1-3)Gal(b1-3)GlcNAc
How it was run: as §1

[44] = molecular target: Neu5Ac(a2-6)Gal(b1-4)GlcNAc(b1-3)Gal(b1-4)GlcNAc
How it was run: as §1

[45] = molecular target: Neu5Ac(a2-6)Gal(b1-4)GlcNAc(b1-3)Gal(b1-4)GlcNAc(b1-2)Man(a1-3)[Neu5Ac(a2-6)Gal(b1-4)GlcNAc(b1-3)Gal(b1-4)GlcNAc(b1-2)Man(a1-6)]GalNAc
How it was run: as §1

[46] = molecular target: Neu5Ac(a2-6)Gal(b1-4)GlcNAc(b1-3)Gal(b1-4)GlcNAc(b1-3)Gal(b1-4)GlcNAc
How it was run: as §1

B1: Apa (Mycobacterium tuberculosis), Rv1860 (protein)
chain: MHQVDPNLTRRKGRLAALAIAAMASASLVTVAVPATANADPEPAPPVPTTAASPPSTAAAPPAPATPVAPPPPAAANTPNAQPGDPNAAPPPADPNAPPPPVIAPNAPQPVRIDNPVGGFSFALPAGWVESDAAHFDYGSALLSKTTGDPPFPGQPPPVANDTRIVLGRLDQKLYASAEATDSKAAARLGSDMGEFYMPYPGTRINQETVSLDANGVSGSASYYEVKFSDPSKPNGQIWTGVIGSPAANAPDAGPPQRWFVVWLGTANNPVDKGAAKALAESIRPLVAPPPAPAPAPAEPAPAPAPAGEVAPTPTTPTPQRTLPA
Q: For B1, which “glycan array binding signal (z-score)” value [1] is on record?
A: -0.436

Q: What about the “glycan array binding signal (z-score)” value [2] of the same binder?
A: 0.015

Q: What about the “glycan array binding signal (z-score)” value [3] of the same binder?
A: -0.35

Q: And the “glycan array binding signal (z-score)” value [4]?
A: -0.334

Q: And the “glycan array binding signal (z-score)” value [5]?
A: -0.5

Q: And the “glycan array binding signal (z-score)” value [6]?
A: -0.292

Q: What about the “glycan array binding signal (z-score)” value [7] of the same binder?
A: 1.62

Q: What about the “glycan array binding signal (z-score)” value [8] of the same binder?
A: -0.442

Q: What about the “glycan array binding signal (z-score)” value [9] of the same binder?
A: 0.673

Q: And the “glycan array binding signal (z-score)” value [10]?
A: -0.14

Q: What about the “glycan array binding signal (z-score)” value [11] of the same binder?
A: 0.227

Q: And the “glycan array binding signal (z-score)” value [12]?
A: 0.242

Q: What about the “glycan array binding signal (z-score)” value [13] of the same binder?
A: 0.026

Q: And the “glycan array binding signal (z-score)” value [14]?
A: -0.341

Q: What about the “glycan array binding signal (z-score)” value [15] of the same binder?
A: -0.642

Q: What about the “glycan array binding signal (z-score)” value [16] of the same binder?
A: -0.633

Q: What about the “glycan array binding signal (z-score)” value [17] of the same binder?
A: -0.153

Q: And the “glycan array binding signal (z-score)” value [18]?
A: -0.318

Q: And the “glycan array binding signal (z-score)” value [19]?
A: -0.249

Q: What about the “glycan array binding signal (z-score)” value [20] of the same binder?
A: -0.38

Q: What about the “glycan array binding signal (z-score)” value [21] of the same binder?
A: 0.002

Q: And the “glycan array binding signal (z-score)” value [22]?
A: -0.487

Q: And the “glycan array binding signal (z-score)” value [23]?
A: -0.371

Q: And the “glycan array binding signal (z-score)” value [24]?
A: -0.169

Q: What about the “glycan array binding signal (z-score)” value [25] of the same binder?
A: -0.379

Q: What about the “glycan array binding signal (z-score)” value [26] of the same binder?
A: -0.307

Q: And the “glycan array binding signal (z-score)” value [27]?
A: 0.488

Q: What about the “glycan array binding signal (z-score)” value [28] of the same binder?
A: -0.334

Q: And the “glycan array binding signal (z-score)” value [29]?
A: -0.125

Q: And the “glycan array binding signal (z-score)” value [30]?
A: -0.489

Q: And the “glycan array binding signal (z-score)” value [31]?
A: -0.168

Q: And the “glycan array binding signal (z-score)” value [32]?
A: -0.454

Q: And the “glycan array binding signal (z-score)” value [33]?
A: -0.473

Q: What about the “glycan array binding signal (z-score)” value [34] of the same binder?
A: -0.16

Q: What about the “glycan array binding signal (z-score)” value [35] of the same binder?
A: -0.176

Q: And the “glycan array binding signal (z-score)” value [36]?
A: -0.312

Q: What about the “glycan array binding signal (z-score)” value [37] of the same binder?
A: -0.431

Q: What about the “glycan array binding signal (z-score)” value [38] of the same binder?
A: -0.421

Q: And the “glycan array binding signal (z-score)” value [39]?
A: -0.289

Q: And the “glycan array binding signal (z-score)” value [40]?
A: -0.332

Q: And the “glycan array binding signal (z-score)” value [41]?
A: -0.276

Q: What about the “glycan array binding signal (z-score)” value [42] of the same binder?
A: -0.515

Q: What about the “glycan array binding signal (z-score)” value [43] of the same binder?
A: -0.548

Q: What about the “glycan array binding signal (z-score)” value [44] of the same binder?
A: -0.502

Q: What about the “glycan array binding signal (z-score)” value [45] of the same binder?
A: -0.349

Q: What about the “glycan array binding signal (z-score)” value [46] of the same binder?
A: -0.637
